# Results reported in the supplement of paper PMC12217912.
# The other results are listed elsewhere or left out. Sequences were assembled here from the parent chain. Values near 0.05 are background.
# B1: TEV protease; numbered along this chain (parent)
# chain: MGESLFKGPRDYNPISSSICHLTNESDGHTTSLYGIGFGPFIITNKHLFRRNNGTLVVQSLHGVFKVKDTTTLQQHLVDGRDMIIIRMPKDFPPFPQKLKFREPQREERICLVTTNFQTKSMSSMVSDTSCTFPSGDGIFWKHWIQTKDGQCGSPLVSTRDGFIVGIHSASNFTNTNNYFTSVPKNFMELLTNQEAQQWVSGWRLNADSVLWGGHKVFMVKPEEPFQPVKEATQL
# Variants of: B1
# Assay: raw area under fraction-flipped curve 0-4 h after induction (AUC4h, not background-subtracted), DNA-recorder readout of cleavage of the substrate (dimensionless); higher = more cleavage of the substrate by the protease variant
# Conditions: temperature: 34 °C; time window: 0-4 h after rhamnose induction
# 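Further: Bxb1 expression induced with 0.2% (w/v) L-rhamnose at OD600 near 0.5, cultures sampled hourly, flipped fraction per protease–substrate barcode pair counted by paired-end Illumina sequencing.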
Variant,area with substrate ECLYFQS,area with substrate EDLYFQS,area with substrate EFLYFQS,area with substrate EPLYFQS,area with substrate ESLYFQS,area with substrate EGLYFQS,area with substrate EILYFQS,area with substrate EKLYFQS,area with substrate EQLYFQS,area with substrate EVLYFQS,area with substrate EWLYFQS,area with substrate EELYFQS,area with substrate ELLYFQS,area with substrate EMLYFQS,area with substrate ERLYFQS,area with substrate ETLYFQS,area with substrate EYLYFQS,area with substrate EHLYFQS
MGESLFKGPRDYNPISSSICHLTNESDGHTTSLYGIGFGPFIITNKHLFRRNNGTLVVQSLHGVFKVKDTTTLQQHLVDGRDMIIIRMPKDFPPFPQKIKFREPQREERICLVTTNFQTKSMSSMVSDTSCTFPSGDGIFWKHWIQTKDGQCGSPLVSTRDGFIVGIHSASNFTNTNNYFTSVPKNFMELLTNQEAQQWVSGWRLNADSVLWGGHKVFMVKPEEPFQPVKEATQL [L99I],0.0915,0.0513,0.133,0.0835,0.101,,,,,,,,,,,,,
MGESLFKGPRDYNPISSSICHLTNESDGHTTSLYGIGFGPFIITNKHLFRRNNGTLVVQSLHGVFKVKDTTTLQQHLVDGRDMIIIRMPKDFPPFPQKNKFREPQREERICLVTTNFQTKSMSSMVSDTSCTFPSGDGIFWKHWIQTKDGQCGSPLVSTRDGFIVGIHSASNFTNTNNYFTSVPKNFMELLTNQEAQQWVSGWRLNADSVLWGGHKVFMVKPEEPFQPVKEATQL [L99N],0.108,,0.0822,,,0.117,0.0577,0.117,0.0972,0.078,0.0885,,,,,,,
MGESLFKGPRDYNPISSSICHLTNESDGHTTSLYGIGFGPFIITNKHLFRRNNGTLVVQSLHGVFKVKDTTTLQQHLVDGRDMIIIRMPKDFPPFPQKVKFREPQREERICLVTTNFQTKSMSSMVSDTSCTFPSGDGIFWKHWIQTKDGQCGSPLVSTRDGFIVGIHSASNFTNTNNYFTSVPKNFMELLTNQEAQQWVSGWRLNADSVLWGGHKVFMVKPEEPFQPVKEATQL [L99V],0.0776,,0.0893,,0.0883,0.0774,0.0881,0.0966,,0.105,,0.103,0.0724,0.111,0.0947,0.116,0.105,
MGESLFKGPRDYNPISSSICHLTNESDGHTTSLYGIGFGPFIITNKHLFRRNNGTLVVQSLHGVFKVKDTTTLQQHLVDGRDMIIIRMPKDFPPFPQKLDFREPQREERICLVTTNFQTKSMSSMVSDTSCTFPSGDGIFWKHWIQTKDGQCGSPLVSTRDGFIVGIHSASNFTNTNNYFTSVPKNFMELLTNQEAQQWVSGWRLNADSVLWGGHKVFMVKPEEPFQPVKEATQL [K100D],0.1,,0.126,0.111,,,0.0821,0.101,0.12,0.0635,0.0841,,,0.103,0.0401,0.109,0.103,0.114
MGESLFKGPRDYNPISSSICHLTNESDGHTTSLYGIGFGPFIITNKHLFRRNNGTLVVQSLHGVFKVKDTTTLQQHLVDGRDMIIIRMPKDFPPFPQKLQFREPQREERICLVTTNFQTKSMSSMVSDTSCTFPSGDGIFWKHWIQTKDGQCGSPLVSTRDGFIVGIHSASNFTNTNNYFTSVPKNFMELLTNQEAQQWVSGWRLNADSVLWGGHKVFMVKPEEPFQPVKEATQL [K100Q],0.102,0.135,,0.123,0.111,,0.0847,0.104,,0.0869,,,0.0755,,0.106,,,
MGESLFKGPRDYNPISSSICHLTNESDGHTTSLYGIGFGPFIITNKHLFRRNNGTLVVQSLHGVFKVKDTTTLQQHLVDGRDMIIIRMPKDFPPFPQKLKEREPQREERICLVTTNFQTKSMSSMVSDTSCTFPSGDGIFWKHWIQTKDGQCGSPLVSTRDGFIVGIHSASNFTNTNNYFTSVPKNFMELLTNQEAQQWVSGWRLNADSVLWGGHKVFMVKPEEPFQPVKEATQL [F101E],0.0479,0.0622,,0.0462,0.0502,,,,,,0.0531,,0.0557,0.0391,0.0475,0.0541,,
MGESLFKGPRDYNPISSSICHLTNESDGHTTSLYGIGFGPFIITNKHLFRRNNGTLVVQSLHGVFKVKDTTTLQQHLVDGRDMIIIRMPKDFPPFPQKLKSREPQREERICLVTTNFQTKSMSSMVSDTSCTFPSGDGIFWKHWIQTKDGQCGSPLVSTRDGFIVGIHSASNFTNTNNYFTSVPKNFMELLTNQEAQQWVSGWRLNADSVLWGGHKVFMVKPEEPFQPVKEATQL [F101S],0.0446,0.0576,,,0.0662,,0.0598,0.0536,,,0.0351,,0.0502,0.042,,0.0416,,
MGESLFKGPRDYNPISSSICHLTNESDGHTTSLYGIGFGPFIITNKHLFRRNNGTLVVQSLHGVFKVKDTTTLQQHLVDGRDMIIIRMPKDFPPFPQKLKFRDPQREERICLVTTNFQTKSMSSMVSDTSCTFPSGDGIFWKHWIQTKDGQCGSPLVSTRDGFIVGIHSASNFTNTNNYFTSVPKNFMELLTNQEAQQWVSGWRLNADSVLWGGHKVFMVKPEEPFQPVKEATQL [E103D],0.12,0.151,,,0.0987,,0.106,,0.128,,0.0882,0.146,0.0747,0.088,,,,
MGESLFKGPRDYNPISSSICHLTNESDGHTTSLYGIGFGPFIITNKHLFRRNNGTLVVQSLHGVFKVKDTTTLQQHLVDGRDMIIIRMPKDFPPFPQKLKFRMPQREERICLVTTNFQTKSMSSMVSDTSCTFPSGDGIFWKHWIQTKDGQCGSPLVSTRDGFIVGIHSASNFTNTNNYFTSVPKNFMELLTNQEAQQWVSGWRLNADSVLWGGHKVFMVKPEEPFQPVKEATQL [E103M],0.102,0.0989,,0.111,0.0977,,0.0841,0.114,0.122,,,,,,,,,0.103
MGESLFKGPRDYNPISSSICHLTNESDGHTTSLYGIGFGPFIITNKHLFRRNNGTLVVQSLHGVFKVKDTTTLQQHLVDGRDMIIIRMPKDFPPFPQKLKFREPQNEERICLVTTNFQTKSMSSMVSDTSCTFPSGDGIFWKHWIQTKDGQCGSPLVSTRDGFIVGIHSASNFTNTNNYFTSVPKNFMELLTNQEAQQWVSGWRLNADSVLWGGHKVFMVKPEEPFQPVKEATQL [R106N],0.101,,,,0.0778,,,,0.097,0.0784,,,,0.106,0.091,0.126,0.0943,
